{"source": "patent US20120252071A1", "about": "(ROCHE DIAGNOSTICS OPERATIONS, published 2012)", "data": [{"molecular_target": "the molecule itself", "experiment": "non-reducing SDS-PAGE; disulfide-linked self-association", "procedure": "Samples of T7 variants were prepared according to a procedure described in Example 4. T7 RNA polymerase and variants thereof were analyzed by gel electrophoresis on polyacrylamide gels containing sodium dodecylsulphate (SDS). Gradient gels (NuPAGE, 4-12%, Bis-Tris Gel, Invitrogen) were used. Typically, protein samples (0.26 mg/ml, 18 μl) were mixed with 6 μl of NuPAGE LDS (Lithium dodecyl sulfate; LDS may also be substituted by sodium dodecyl sulfate) sample buffer, (4×, Invitrogen). After heating for 2 min at 85° C., samples (20 μl) were applied on the gel. The total amount of protein in a single lane of the gel was between 1 μg and 3 μg. Gels were run in SDS Running Buffer (1×MES, Invitrogen) at 200 V for 1 hour.\nFurther, samples of wild-type T7 and T7 variants (0.2 to 0.3 mg/ml each) were incubated at 37° C. for 16 hours in 25 mM Tris/HCl, pH 7.5 (adjusted at 25° C.), 0.1 mM EDTA, 100 mM NaCl. Aliquots were removed and applied on the SDS gels under reducing conditions or under non-reducing conditions. After incubation a sample of each treated preparation was subjected to SDS polyacrylamide gel electrophoresis as described in Example 5. Results are depicted in FIG. 2 (reducing reagents absent) and FIG. 3 (10 mM DTT added).\nWith reference to FIG. 2 (reducing reagents absent), and in reference to Examples 5, 6, and 7, a stained SDS polyacrylamide gel is shown. The lanes designated M contain the Mark 12 size marker (Invitrogen). No reducing agent was added prior to electrophoresis. Lane 1: wild-type T7 RNA polymerase without His-tag; Lane 2: wild-type T7 RNA polymerase including His6-tag; Lane 3: T7 variant #8 [Cys125Ser, Cys347Ser, Cys492Ser, Cys515Ser, Cys723Ser, Cys839Ser] including His 6-tag; Lane 4: T7 variant #6 [Cys723Ser] including His6-tag; Lane 5: T7 variant #3 [Cys347Ser] including His6-tag; Lane 6: T7 variant #7 [Cys839Ser] including His6-tag; Lane 7: T7 variant #2 [Cys125Ser] including His6-tag; Lane 8: T7 variant #4 [Cys492Ser] including His6-tag; Lane 9: T7 variant #5 [Cys515Ser] including His6-tag; To varying extents homodimers and higher-order homomultimers can be seen in lanes 1, 2, 5, 6, 7, 8, and 9. Lanes 3 and 4 are detectably free of homodimers and/or homomultimers.", "values": [{"protein": "T7 variant #2 [Cys125Ser] including His6-tag (enzyme, also called C125S; not shown: N-terminal His6-tag with linker) MNTINIAKNDFSDIELAAIPFNTLADHYGERLAREQLALEHESYEMGEARFRKMFERQLKAGEVADNAAAKPLITTLLPKMIARINDWFEEVKAKRGKRPTAFQFLQEIKPEAVAYITIKTTLASLTSADNTTVQAVASAIGRAIEDEARFGRIRDLEAKHFKKNVEEQLNKRVGHVYKKAFMQVVEADMLSKGLLGGEAWSSWHKEDSIHVGVRCIEMLIESTGMVSLHRQNAGVVGQDSETIELAPEYAEAIATRAGALAGISPMFQPCVVPPKPWTGITGGGYWANGRRPLALVRTHSKKALMRYEDVYMPEVYKAINIAQNTAWKINKKVLAVANVITKWKHCPVEDIPAIEREELPMKPEDIDMNPEALTAWKRAAAAVYRKDKARKSRRISLEFMLEQANKFANHKAIWFPYNMDWRGRVYAVSMFNPQGNDMTKGLLTLAKGKPIGKEGYYWLKIHGANCAGVDKVPFPERIKFIEENHENIMACAKSPLENTWWAEQDSPFCFLAFCFEYAGVQHHGLSYNCSLPLAFDGSCSGIQHFSAMLRDEVGGRAVNLLPSETVQDIYGIVAKKVNEILQADAINGTDNEVVTVTDENTGEISEKVKLGTKALAGQWLAYGVTRSVTKRSVMTLAYGSKEFGFRQQVLEDTIQPAIDSGKGLMFTQPNQAAGYMAKLIWESVSVTVVAAVEAMNWLKSAAKLLAAEVKDKKTGEILRKRCAVHWVTPDGFPVWQEYKKPIQTRLNLMFLGQFRLQPTINTNKDSEIDAHKQESGIAPNFVHSQDGSHLRKTVVWAHEKYGIESFALIHDSFGTIPADAANLFKAVRETMVDTYESCDVLADFYDQFADQLHESQLDKMPALPAKGNLNLRDILESDFAFA", "binding result": "binds"}, {"protein": "T7 variant #7 [Cys839Ser] including His6-tag (enzyme, also called C839S; not shown: N-terminal His6-tag with linker) MNTINIAKNDFSDIELAAIPFNTLADHYGERLAREQLALEHESYEMGEARFRKMFERQLKAGEVADNAAAKPLITTLLPKMIARINDWFEEVKAKRGKRPTAFQFLQEIKPEAVAYITIKTTLACLTSADNTTVQAVASAIGRAIEDEARFGRIRDLEAKHFKKNVEEQLNKRVGHVYKKAFMQVVEADMLSKGLLGGEAWSSWHKEDSIHVGVRCIEMLIESTGMVSLHRQNAGVVGQDSETIELAPEYAEAIATRAGALAGISPMFQPCVVPPKPWTGITGGGYWANGRRPLALVRTHSKKALMRYEDVYMPEVYKAINIAQNTAWKINKKVLAVANVITKWKHCPVEDIPAIEREELPMKPEDIDMNPEALTAWKRAAAAVYRKDKARKSRRISLEFMLEQANKFANHKAIWFPYNMDWRGRVYAVSMFNPQGNDMTKGLLTLAKGKPIGKEGYYWLKIHGANCAGVDKVPFPERIKFIEENHENIMACAKSPLENTWWAEQDSPFCFLAFCFEYAGVQHHGLSYNCSLPLAFDGSCSGIQHFSAMLRDEVGGRAVNLLPSETVQDIYGIVAKKVNEILQADAINGTDNEVVTVTDENTGEISEKVKLGTKALAGQWLAYGVTRSVTKRSVMTLAYGSKEFGFRQQVLEDTIQPAIDSGKGLMFTQPNQAAGYMAKLIWESVSVTVVAAVEAMNWLKSAAKLLAAEVKDKKTGEILRKRCAVHWVTPDGFPVWQEYKKPIQTRLNLMFLGQFRLQPTINTNKDSEIDAHKQESGIAPNFVHSQDGSHLRKTVVWAHEKYGIESFALIHDSFGTIPADAANLFKAVRETMVDTYESSDVLADFYDQFADQLHESQLDKMPALPAKGNLNLRDILESDFAFA", "binding result": "binds"}, {"protein": "T7 variant #3 [Cys347Ser] including His6-tag (enzyme, also called C347S; not shown: N-terminal His6-tag with linker) MNTINIAKNDFSDIELAAIPFNTLADHYGERLAREQLALEHESYEMGEARFRKMFERQLKAGEVADNAAAKPLITTLLPKMIARINDWFEEVKAKRGKRPTAFQFLQEIKPEAVAYITIKTTLACLTSADNTTVQAVASAIGRAIEDEARFGRIRDLEAKHFKKNVEEQLNKRVGHVYKKAFMQVVEADMLSKGLLGGEAWSSWHKEDSIHVGVRCIEMLIESTGMVSLHRQNAGVVGQDSETIELAPEYAEAIATRAGALAGISPMFQPCVVPPKPWTGITGGGYWANGRRPLALVRTHSKKALMRYEDVYMPEVYKAINIAQNTAWKINKKVLAVANVITKWKHSPVEDIPAIEREELPMKPEDIDMNPEALTAWKRAAAAVYRKDKARKSRRISLEFMLEQANKFANHKAIWFPYNMDWRGRVYAVSMFNPQGNDMTKGLLTLAKGKPIGKEGYYWLKIHGANCAGVDKVPFPERIKFIEENHENIMACAKSPLENTWWAEQDSPFCFLAFCFEYAGVQHHGLSYNCSLPLAFDGSCSGIQHFSAMLRDEVGGRAVNLLPSETVQDIYGIVAKKVNEILQADAINGTDNEVVTVTDENTGEISEKVKLGTKALAGQWLAYGVTRSVTKRSVMTLAYGSKEFGFRQQVLEDTIQPAIDSGKGLMFTQPNQAAGYMAKLIWESVSVTVVAAVEAMNWLKSAAKLLAAEVKDKKTGEILRKRCAVHWVTPDGFPVWQEYKKPIQTRLNLMFLGQFRLQPTINTNKDSEIDAHKQESGIAPNFVHSQDGSHLRKTVVWAHEKYGIESFALIHDSFGTIPADAANLFKAVRETMVDTYESCDVLADFYDQFADQLHESQLDKMPALPAKGNLNLRDILESDFAFA", "binding result": "binds"}, {"protein": "T7 variant #4 [Cys492Ser] including His6-tag (enzyme, also called C492S; not shown: N-terminal His6-tag with linker) MNTINIAKNDFSDIELAAIPFNTLADHYGERLAREQLALEHESYEMGEARFRKMFERQLKAGEVADNAAAKPLITTLLPKMIARINDWFEEVKAKRGKRPTAFQFLQEIKPEAVAYITIKTTLACLTSADNTTVQAVASAIGRAIEDEARFGRIRDLEAKHFKKNVEEQLNKRVGHVYKKAFMQVVEADMLSKGLLGGEAWSSWHKEDSIHVGVRCIEMLIESTGMVSLHRQNAGVVGQDSETIELAPEYAEAIATRAGALAGISPMFQPCVVPPKPWTGITGGGYWANGRRPLALVRTHSKKALMRYEDVYMPEVYKAINIAQNTAWKINKKVLAVANVITKWKHCPVEDIPAIEREELPMKPEDIDMNPEALTAWKRAAAAVYRKDKARKSRRISLEFMLEQANKFANHKAIWFPYNMDWRGRVYAVSMFNPQGNDMTKGLLTLAKGKPIGKEGYYWLKIHGANCAGVDKVPFPERIKFIEENHENIMASAKSPLENTWWAEQDSPFCFLAFCFEYAGVQHHGLSYNCSLPLAFDGSCSGIQHFSAMLRDEVGGRAVNLLPSETVQDIYGIVAKKVNEILQADAINGTDNEVVTVTDENTGEISEKVKLGTKALAGQWLAYGVTRSVTKRSVMTLAYGSKEFGFRQQVLEDTIQPAIDSGKGLMFTQPNQAAGYMAKLIWESVSVTVVAAVEAMNWLKSAAKLLAAEVKDKKTGEILRKRCAVHWVTPDGFPVWQEYKKPIQTRLNLMFLGQFRLQPTINTNKDSEIDAHKQESGIAPNFVHSQDGSHLRKTVVWAHEKYGIESFALIHDSFGTIPADAANLFKAVRETMVDTYESCDVLADFYDQFADQLHESQLDKMPALPAKGNLNLRDILESDFAFA", "binding result": "binds"}, {"protein": "T7 variant #5 [Cys515Ser] including His6-tag (enzyme, also called C515S; not shown: N-terminal His6-tag with linker) MNTINIAKNDFSDIELAAIPFNTLADHYGERLAREQLALEHESYEMGEARFRKMFERQLKAGEVADNAAAKPLITTLLPKMIARINDWFEEVKAKRGKRPTAFQFLQEIKPEAVAYITIKTTLACLTSADNTTVQAVASAIGRAIEDEARFGRIRDLEAKHFKKNVEEQLNKRVGHVYKKAFMQVVEADMLSKGLLGGEAWSSWHKEDSIHVGVRCIEMLIESTGMVSLHRQNAGVVGQDSETIELAPEYAEAIATRAGALAGISPMFQPCVVPPKPWTGITGGGYWANGRRPLALVRTHSKKALMRYEDVYMPEVYKAINIAQNTAWKINKKVLAVANVITKWKHCPVEDIPAIEREELPMKPEDIDMNPEALTAWKRAAAAVYRKDKARKSRRISLEFMLEQANKFANHKAIWFPYNMDWRGRVYAVSMFNPQGNDMTKGLLTLAKGKPIGKEGYYWLKIHGANCAGVDKVPFPERIKFIEENHENIMACAKSPLENTWWAEQDSPFCFLAFSFEYAGVQHHGLSYNCSLPLAFDGSCSGIQHFSAMLRDEVGGRAVNLLPSETVQDIYGIVAKKVNEILQADAINGTDNEVVTVTDENTGEISEKVKLGTKALAGQWLAYGVTRSVTKRSVMTLAYGSKEFGFRQQVLEDTIQPAIDSGKGLMFTQPNQAAGYMAKLIWESVSVTVVAAVEAMNWLKSAAKLLAAEVKDKKTGEILRKRCAVHWVTPDGFPVWQEYKKPIQTRLNLMFLGQFRLQPTINTNKDSEIDAHKQESGIAPNFVHSQDGSHLRKTVVWAHEKYGIESFALIHDSFGTIPADAANLFKAVRETMVDTYESCDVLADFYDQFADQLHESQLDKMPALPAKGNLNLRDILESDFAFA", "binding result": "binds"}]}]}
